Reference: the supplement of paper PMC10338343
± gives the standard deviation. The list shows a part of the results, in another mix than the full data.

The sequences below were run on MIWI (PIWIL1) piRISC loaded with L1MC piRNA (30 nt) (assay: pre-steady-state target cleavage rate (min^-1); MIWI and MILI are mouse PIWI proteins and EfPiwi is from a freshwater sponge; tags in brackets are library labels; higher = faster piRNA-guided slicing of the target). Conditions: guide: L1MC piRNA 5'p-UAACUAAAUACUAUGCAAGCUGUAGGUCCU; auxiliary factor: none (no GTSF1).
Summary of the method: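 Cleave-'n-Seq used a transcribed, DNA-blocked target RNA library at 0.1 nM and active affinity-purified piRISC with one synthetic guide at 1 nM, with or without 500 nM GTSF1 partner protein, in HEPES–potassium acetate buffer at 33 °C for 0–8 or 0–960 min. Uncleaved targets were sequenced and normalised to depth and to weakly complementary targets, and three trials were pooled with k3 capped at 0.0001 min^-1. The pre-steady-state cleavage rate was estimated by a burst-and-steady-state fit.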

Compared with UCCUCCUACAGCUUGCAUAGUAUUUAUGUUA, UCCUGGAUCAGCUUGCAUAGUAAUUUGUUA is lower in “pre-steady-state target cleavage rate” value: 0.0232 ± 0.0055 for the first, 0.00656 ± 0.0022 for the second.

UCCUGGAUGUGCUUGCAUUGUAUUUUGUUA and UCCUGGAACACCUUGCAUACUAUUUAGUUA are within error of each other in “pre-steady-state target cleavage rate” value: 0.00636 ± 0.0027 for the first, 0.00558 ± 0.0024 for the second.

Going from UCCUGGUACUGCUUGCAUACUAUUUAGUUA to UCCUGGAUGAGCUUGCAUAGUGAUUUAGUUA, the “pre-steady-state target cleavage rate” value falls from 0.0131 ± 0.004 to 0.00335 ± 0.0017.

First: UCCUCCUACAGCAUGCAUAGUAUUUUGUUA
Second: UCCUCGUACAGCUUGCAUAGUAAUUAGUUA
The “pre-steady-state target cleavage rate” value of the first is lower: 0.0105 ± 0.002 for the first, 0.029 ± 0.007 for the second.

UCGACCUACAGCUUGCAUAGUAUAAAGUUA and UCGACCUACAGCUUGCAUAGAAUUUUGUUA are within error of each other in “pre-steady-state target cleavage rate” value: 0.0181 ± 0.0052 for the first, 0.0108 ± 0.0028 for the second.

UCCUGGUACAGCUUGCAUAGUAUUUAUUUA and UCCUGGAUCAGCUUGCUUAGUAUUUAGUUA are within error of each other in “pre-steady-state target cleavage rate” value: 0.0227 ± 0.0054 for the first, 0.0327 ± 0.0082 for the second.

First: UCCUGCUACAGCUUGCAUAGUAUUAUGUUA
Second: AGGACCAAGAGCUUGCAUAGUAUUUAGUUA
The “pre-steady-state target cleavage rate” value of the first is lower: 0.0114 ± 0.0032 for the first, 0.0743 ± 0.015 for the second.

UCCUGCUACAGCUUGCAUAGUAUUUGAGUUA and UCCUGGAACAGCUUGCAUAGUAUUUACUAA are within error of each other in “pre-steady-state target cleavage rate” value: 0.0122 ± 0.0031 for the first, 0.0106 ± 0.0047 for the second.

Going from UCCUGGAUCUGCUUGCAUUGUAUUUAGUUA to UCCACCUACAGCUUGCAUAGUAUUUUGAAA, the “pre-steady-state target cleavage rate” value falls from 0.0147 ± 0.0049 to 0.00496 ± 0.0029.

UCCUCCAACAGCUAGCAUAGUAUUUAGUUA and UCGACCUUCAGCUUGCAUAGUAUUUAGAUA are within error of each other in “pre-steady-state target cleavage rate” value: 0.0178 ± 0.0032 for the first, 0.0266 ± 0.006 for the second.

AGGACCUACAGCUUGCAUAGUUUUUAGAUA and UCCACCUACACUUGCAUAGUAUUUAGUUA are within error of each other in “pre-steady-state target cleavage rate” value: 0.0189 ± 0.0055 for the first, 0.0224 ± 0.0044 for the second.

Going from UGGACCUUCAGCUUGCUUAGUAUUUAGUUA to UCCUGCUACAGCUUGGAUAGUAUAUAGUUA, the “pre-steady-state target cleavage rate” value falls from 0.0441 ± 0.011 to 0.0171 ± 0.0042.

Going from UCCUGCUACAGCUUGCAAAGUAUUUAGUAA to UGGACCUACAGCUUGCAUUGUAUUUACUUA, the “pre-steady-state target cleavage rate” value rises from 0.0112 ± 0.003 to 0.0248 ± 0.0066.

Going from UCCUGCUACAGCUUGCAUAGUACUUAGUUA to UCCUGGAUGAGCUUGCAUAGUAUAUUGUUA, the “pre-steady-state target cleavage rate” value falls from 0.0372 ± 0.0054 to 0.0157 ± 0.004.

Going from UGGACCUACAGCUUGCAUAGUAAUUACUUA to UCGACCUAGAGGUUGCAUAGUAUUUAGUUA, the “pre-steady-state target cleavage rate” value rises from 0.0123 ± 0.0032 to 0.0216 ± 0.0032.

Compared with UGGACCUACAGCAUGCAUAGUUUUUAGUUA, UGGACCUACAGCUUGCUUAGUAUUUAGUUA is higher in “pre-steady-state target cleavage rate” value: 0.0174 ± 0.005 for the first, 0.0426 ± 0.011 for the second.

Compared with UCCUGGAACACCUUGCAUAGUAUUAAGUUA, UGGACCUACACCUUGCAUAGUUUUUAGUUA is higher in “pre-steady-state target cleavage rate” value: 0.0072 ± 0.0024 for the first, 0.022 ± 0.0047 for the second.

First: UCCAGCUACAGCUUGCAUAGAAUUUAGUUA
Second: UCGACCCACAGCUUGCAUAGUAUUUAGUUA
The “pre-steady-state target cleavage rate” value of the first is lower: 0.0262 ± 0.0063 for the first, 0.0644 ± 0.011 for the second.

Going from UCCUGGAUGAGCUUGCAUAGUAUUUAGUGUA to UGGACCUACAGCUUGCAUUGUAUUAAGUUA, the “pre-steady-state target cleavage rate” value falls from 0.046 ± 0.011 to 0.0132 ± 0.0041.

First: UCGACCUACAGGAAGCAUAGUAUUUAGUAA
Second: UCCUGGAUCAGCUUGCAUCGUAUUUAGUUA
The “pre-steady-state target cleavage rate” value of the first is lower: 0.00296 ± 0.0024 for the first, 0.032 ± 0.0077 for the second.
